Laboratory results: the supplement of paper PMC8728848
The other results are listed elsewhere or left out.

Columns and labels:
Experiment in all cases: glycan array binding signal (z-score within array); higher = stronger binding
Conditions in all cases: glycan notation: IUPAC condensed, linker removed
[1] = molecular target: Gal(b1-4)Glc
Outline: (§1)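 Glycan array data came from 3228 arrays in the Consortium for Functional Glycomics database, and only arrays with an available protein sequence were kept. Glycan names were put into IUPAC-condensed notation, and columns mapping to the same glycan were averaged. The binding signal is a within-array Z-score, averaged across arrays of one protein sequence run at different concentrations or buffers and across linkers. A negative Z-score can be read as non-binding.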

[2] = molecular target: Gal(b1-4)Glc6S
Outline: as §1

[3] = molecular target: Gal(b1-4)GlcNAc
Outline: as §1

[4] = molecular target: Gal(b1-4)GlcNAc(a1-6)Gal(b1-4)GlcNAc
Outline: as §1

[5] = molecular target: Gal(b1-4)GlcNAc(b1-2)Man
Outline: as §1

[6] = molecular target: Gal(b1-4)GlcNAc(b1-2)Man(a1-3)Man(b1-4)GlcNAc(b1-4)GlcNAc
Outline: as §1

[7] = molecular target: Gal(b1-4)GlcNAc(b1-2)Man(a1-3)[Gal(b1-4)GlcNAc(b1-2)Man(a1-6)]Man(b1-4)GlcNAc(b1-4)GlcNAc
Outline: as §1

[8] = molecular target: Gal(b1-4)GlcNAc(b1-2)Man(a1-3)[Gal(b1-4)GlcNAc(b1-2)Man(a1-6)]Man(b1-4)GlcNAc(b1-4)[Fuc(a1-6)]GlcNAc
Outline: as §1

[9] = molecular target: Gal(b1-4)GlcNAc(b1-2)Man(a1-3)[Gal(b1-4)GlcNAc(b1-2)Man(a1-6)][Gal(b1-4)GlcNAc(b1-4)]Man(b1-4)GlcNAc(b1-4)[Fuc(a1-6)]GlcNAc
Outline: as §1

[10] = molecular target: Gal(b1-4)GlcNAc(b1-2)Man(a1-3)[Gal(b1-4)GlcNAc(b1-2)Man(a1-6)][GlcNAc(b1-4)]Man(b1-4)GlcNAc(b1-4)[Fuc(a1-6)]GlcNAc
Outline: as §1

[11] = molecular target: Gal(b1-4)GlcNAc(b1-2)Man(a1-3)[GlcNAc(b1-2)Man(a1-6)]Man(b1-4)GlcNAc(b1-4)GlcNAc
Outline: as §1

[12] = molecular target: Gal(b1-4)GlcNAc(b1-2)Man(a1-3)[GlcNAc(b1-4)][Gal(b1-4)GlcNAc(b1-2)Man(a1-6)]Man(b1-4)GlcNAc(b1-4)GlcNAc
Outline: as §1

[13] = molecular target: Gal(b1-4)GlcNAc(b1-2)Man(a1-3)[Man(a1-6)]Man(b1-4)GlcNAc(b1-4)GlcNAc
Outline: as §1

[14] = molecular target: Gal(b1-4)GlcNAc(b1-2)Man(a1-6)Man(b1-4)GlcNAc(b1-4)GlcNAc
Outline: as §1

[15] = molecular target: Gal(b1-4)GlcNAc(b1-2)Man(a1-6)[GlcNAc(b1-2)Man(a1-3)]Man(b1-4)GlcNAc(b1-4)GlcNAc
Outline: as §1

[16] = molecular target: Gal(b1-4)GlcNAc(b1-2)Man(a1-6)[Man(a1-3)]Man(b1-4)GlcNAc(b1-4)GlcNAc
Outline: as §1

[17] = molecular target: Gal(b1-4)GlcNAc(b1-2)[Gal(b1-4)GlcNAc(b1-4)]Man(a1-3)[Gal(b1-4)GlcNAc(b1-2)Man(a1-6)]Man(b1-4)GlcNAc(b1-4)GlcNAc
Outline: as §1

[18] = molecular target: Gal(b1-4)GlcNAc(b1-2)[Gal(b1-4)GlcNAc(b1-4)]Man(a1-3)[Gal(b1-4)GlcNAc(b1-2)[Gal(b1-4)GlcNAc(b1-6)]Man(a1-6)]Man(b1-4)GlcNAc(b1-4)GlcNAc
Outline: as §1

[19] = molecular target: Gal(b1-4)GlcNAc(b1-2)[Gal(b1-4)GlcNAc(b1-4)]Man(a1-3)[GlcNAc(b1-4)][Gal(b1-4)GlcNAc(b1-2)Man(a1-6)]Man(b1-4)GlcNAc(b1-4)GlcNAc
Outline: as §1

[20] = molecular target: Gal(b1-4)GlcNAc(b1-2)[Gal(b1-4)GlcNAc(b1-4)]Man(a1-3)[GlcNAc(b1-4)][Gal(b1-4)GlcNAc(b1-2)[Gal(b1-4)GlcNAc(b1-6)]Man(a1-6)]Man(b1-4)GlcNAc(b1-4)GlcNAc
Outline: as §1

[21] = molecular target: Gal(b1-4)GlcNAc(b1-2)[Gal(b1-4)GlcNAc(b1-6)]Man(a1-6)[Gal(b1-4)GlcNAc(b1-2)Man(a1-3)]Man(b1-4)GlcNAc(b1-4)GlcNAc
Outline: as §1

[22] = molecular target: Gal(b1-4)GlcNAc(b1-2)[Gal(b1-4)GlcNAc(b1-6)]Man(a1-6)[Gal(b1-4)GlcNAc(b1-2)Man(a1-3)]Man(b1-4)GlcNAc(b1-4)[Fuc(a1-6)]GlcNAc
Outline: as §1

B1: GNL (Galanthus nivalis) (protein)
chain: MGHHHHHHHHYGTLENGHWLMVGMSIFSKDRTVELRMQDDGKLAIYYNDHCAWQSTAQQVNNAKGAVMQGDGNFCIYDKNGKATWHTNTAAPSGDSHTFVSVQDDGNLVLYKNNGATPIWSSKSNK
- glycan array binding signal (z-score) [1]: -0.219
- glycan array binding signal (z-score) [2]: -0.152
- glycan array binding signal (z-score) [3]: -0.238
- glycan array binding signal (z-score) [4]: -0.255
- glycan array binding signal (z-score) [5]: -0.238
- glycan array binding signal (z-score) [6]: 2.56
- glycan array binding signal (z-score) [7]: 4.76
- glycan array binding signal (z-score) [8]: 0.872
- glycan array binding signal (z-score) [9]: -0.213
- glycan array binding signal (z-score) [10]: -0.238
- glycan array binding signal (z-score) [11]: 3.92
- glycan array binding signal (z-score) [12]: -0.271
- glycan array binding signal (z-score) [13]: 10.9
- glycan array binding signal (z-score) [14]: -0.253
- glycan array binding signal (z-score) [15]: 7.59
- glycan array binding signal (z-score) [16]: -0.201
- glycan array binding signal (z-score) [17]: -0.104
- glycan array binding signal (z-score) [18]: -0.192
- glycan array binding signal (z-score) [19]: -0.235
- glycan array binding signal (z-score) [20]: -0.148
- glycan array binding signal (z-score) [21]: -0.003
- glycan array binding signal (z-score) [22]: -0.193
